Source: publication PMC8313700
Results are given in words; binding and its absence hold for the method and conditions named. In cells and extracts the contact can be indirect. Some results given as binding are weak or reduced against the parent protein; the word gives no strength. For some assays here: Sequences can lack the tags named with a protein.

The chains behind the UniProt entries cited, without tags or fusion partners. Where a name states a change or a piece, a line headed by the entry shows the natural chain unless it says otherwise. Residues count along the entry.
UniProt P06748: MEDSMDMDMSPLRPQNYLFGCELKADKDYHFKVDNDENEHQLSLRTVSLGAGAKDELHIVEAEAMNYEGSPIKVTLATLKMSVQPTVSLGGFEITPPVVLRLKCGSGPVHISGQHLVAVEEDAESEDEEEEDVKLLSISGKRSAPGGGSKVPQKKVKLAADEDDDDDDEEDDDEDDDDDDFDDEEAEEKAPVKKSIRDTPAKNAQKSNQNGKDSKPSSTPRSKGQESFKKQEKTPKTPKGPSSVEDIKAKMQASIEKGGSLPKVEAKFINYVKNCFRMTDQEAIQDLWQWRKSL
GST-NPM1 (aa1-119), N-terminal region: residues 1-119 of P06748
GST-NPM1 (aa120-188): residues 120-188 of P06748
GST-NPM1 (aa189-294): residues 189-294 of P06748

Columns and labels:
[1] = biological target: T1, GST-HO-1_(1-65) (UniProt P09601); assay: pull-down; GST-HO-1 fragments on GST Tag Immunomagnetic Beads; NPM1 protein overexpressed by plasmid incubated with the beads 1 h at 37 °C; Western blot; only the target purified
T1 sequence: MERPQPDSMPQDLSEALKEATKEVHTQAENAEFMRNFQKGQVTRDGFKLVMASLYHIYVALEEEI

[2] = biological target: T2, GST-HO-1_(131-266) (UniProt P09601); assay: as above
T2 sequence: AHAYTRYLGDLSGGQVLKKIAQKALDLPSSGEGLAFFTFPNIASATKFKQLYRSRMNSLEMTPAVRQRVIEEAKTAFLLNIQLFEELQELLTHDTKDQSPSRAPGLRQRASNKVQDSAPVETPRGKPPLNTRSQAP

[3] = biological target: T3, GST-HO-1_(66-130) (UniProt P09601); assay: as above
T3 sequence: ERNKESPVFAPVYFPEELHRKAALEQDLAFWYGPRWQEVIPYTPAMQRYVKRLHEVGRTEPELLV

[4] = biological target: T4, Heme oxygenase-1 (HO-1), endogenous, induced by Hemin in HUVECs (human (endogenous in HUVECs)) (UniProt P09601); assay: co-IP; HUVECs transfected with ΔHO-1 or treated with Hemin; precipitated by primary antibody (anti-HO-1 or anti-NPM1 listed), Western blot
T4 sequence: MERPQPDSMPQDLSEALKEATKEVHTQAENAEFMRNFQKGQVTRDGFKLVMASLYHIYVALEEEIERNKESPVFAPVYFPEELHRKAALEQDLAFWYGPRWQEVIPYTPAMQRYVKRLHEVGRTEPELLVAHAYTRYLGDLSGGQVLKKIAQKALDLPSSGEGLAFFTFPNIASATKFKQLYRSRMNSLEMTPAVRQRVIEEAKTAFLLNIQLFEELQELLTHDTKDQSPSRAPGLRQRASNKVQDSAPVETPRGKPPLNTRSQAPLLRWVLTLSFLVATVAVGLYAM

[5] = biological target: T5, ΔHO-1, truncated heme oxygenase-1 without transmembrane segment (aa1-266), with a Flag tag (UniProt P09601); assay: as above
T5 sequence: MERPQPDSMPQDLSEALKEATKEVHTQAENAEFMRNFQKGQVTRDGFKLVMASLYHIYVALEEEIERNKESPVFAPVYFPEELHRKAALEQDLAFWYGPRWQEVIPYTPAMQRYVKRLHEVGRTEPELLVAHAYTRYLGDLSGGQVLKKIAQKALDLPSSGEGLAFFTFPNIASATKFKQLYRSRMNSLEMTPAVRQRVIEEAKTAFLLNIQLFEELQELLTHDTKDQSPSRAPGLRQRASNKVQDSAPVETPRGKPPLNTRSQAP

[6] = biological target: T4, Heme oxygenase-1 (HO-1), endogenous, induced by Hemin in HUVECs (human (endogenous in HUVECs)); assay: condition: only untreated cells (no Hemin, no ΔHO-1); co-IP; untreated (control) HUVECs, no ΔHO-1 and no Hemin; precipitated by primary antibody, Western blot
[7] = biological target: GST-NPM1 (aa1-119), N-terminal region (UniProt P06748); assay: pull-down; GST-NPM1 fusion proteins on GST Tag Immunomagnetic Beads; HO-1 protein induced by Hemin incubated with the beads 1 h at 37 °C; Western blot; only the target purified
[8] = biological target: GST-NPM1 (aa120-188) (UniProt P06748); assay: as above
[9] = biological target: GST-NPM1 (aa189-294) (UniProt P06748); assay: as above
[10] = biological target: GST-NPM1 wild type (UniProt P06748); assay: as above
[11] = biological target: GST-NPM1_(C275S) (UniProt P06748); assay: as above

NPM1 wild type (with a Flag tag), overexpressed by plasmid (from UniProt P06748 1-294)
binding [1]: no binding
binding [2]: binds
binding [3]: no binding

Nucleophosmin (NPM1), endogenous in HUVECs (from UniProt P06748 1-294)
binding [4]: binds
binding [5]: binds
binding [6]: no binding

B1: Heme oxygenase-1 (HO-1), endogenous, induced by Hemin in HUVECs (protein, UniProt P09601 1-288)
chain: T4 sequence
binding [7]: binds
binding [8]: no binding
binding [9]: no binding
binding [10]: binds
binding [11]: binds
